# Assay results from the supplement of paper PMC8728848.
# Some of the results follow.
# B1: ZG-16 (Homo sapiens), O60844 (protein)
# chain: IQARSSSYSGEYGSGGGKRFSHSGNQLDGPITALRVRVNTYYIVGLQVRYGKVWSDYVGGRNGDLEEIFLHPGESVIQVSGKYKWYLKKLVFVTDKGRYLSFGKDSGTSFNAVPLHPNTVLRFISGRSGSLIDAIGLHWDVYPTSCSRCSRGSDDDDKAEPRGPTIKPCPPCKCPAPNLLGGPSVFIFPPKIKDVLMISLSPIVTCVVVDVSEDDPDVQISWFVNNVEVHTAQTQTHREDYNSTLRVVSALPIQHQDWMSGKEFKCKVNNKDLPAPIERTISKPKGSVRAPQVYVLPPPEEEMTKKQVTLTCMVTDFMPEDIYVEWTNNGKTELNYKNTEPVLDSDGSYFMYSKLRVEKKNWVERNSYSCSVVHEGLHNHHTTKSFSRTPGKRTYHHHHHHARKLTR
# Assays:
# Assay in all cases: glycan array binding signal (z-score within array); higher = stronger binding
# Conditions in all cases: glycan notation: IUPAC condensed, linker removed
# [1] = molecular target: Gal(b1-4)GlcNAc(b1-6)[Gal(b1-3)]GalNAc
# In short: (§1)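 Glycan array data were curated from 3228 arrays in the Consortium for Functional Glycomics database and kept only where the protein sequence was available. Glycan names were converted to IUPAC-condensed notation, and columns mapping to the same glycan were averaged. The binding signal is a within-array Z-score, averaged across arrays of the same protein sequence at different concentrations or buffers and across linkers. Negative Z-scores can be read as non-binding.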
# [2] = molecular target: Gal3S(b1-3)GalNAc
# In short: as §1
# [3] = molecular target: Gal3S(b1-3)GlcNAc
# In short: as §1
# [4] = molecular target: Gal3S(b1-3)[Fuc(a1-4)]GlcNAc
# In short: as §1
# [5] = molecular target: Gal3S(b1-4)Glc
# In short: as §1
# [6] = molecular target: Gal3S(b1-4)Glc6S
# In short: as §1
# [7] = molecular target: Gal3S(b1-4)GlcNAc
# In short: as §1
# [8] = molecular target: Gal3S(b1-4)GlcNAc6S
# In short: as §1
# [9] = molecular target: Gal3S(b1-4)[Fuc(a1-3)]Glc
# In short: as §1
# [10] = molecular target: Gal3S(b1-4)[Fuc(a1-3)]Glc6S
# In short: as §1
# [11] = molecular target: Gal3S4S(b1-4)GlcNAc
# In short: as §1
# [12] = molecular target: Gal3S6S(b1-4)GlcNAc
# In short: as §1
# [13] = molecular target: Gal3S6S(b1-4)GlcNAc6S
# In short: as §1
# [14] = molecular target: Gal4S(b1-4)GlcNAc
# In short: as §1
# [15] = molecular target: Gal4S6S(b1-4)GlcNAc
# In short: as §1
# [16] = molecular target: Gal6S(b1-4)Glc
# In short: as §1
# [17] = molecular target: Gal6S(b1-4)Glc6S
# In short: as §1
# [18] = molecular target: Gal6S(b1-4)GlcNAc
# In short: as §1
# [19] = molecular target: Gal6S(b1-4)GlcNAc6S
# In short: as §1
# [20] = molecular target: GalNAc(a1-3)Gal
# In short: as §1
# [21] = molecular target: GalNAc(a1-3)GalNAc
# In short: as §1
# [22] = molecular target: GalNAc(a1-3)GalNAc(a1-3)Gal(a1-4)Gal(b1-4)GlcNAc
# In short: as §1
# [23] = molecular target: GalNAc(b1-3)Gal
# In short: as §1
# [24] = molecular target: GalNAc(b1-3)Gal(a1-4)Gal(b1-4)GlcNAc
# In short: as §1
# [25] = molecular target: GalNAc(b1-3)Gal(a1-4)Gal(b1-4)GlcNAc(b1-3)Gal(b1-4)Glc
# In short: as §1
# [26] = molecular target: GalNAc(b1-3)Gal(a1-6)Gal(b1-4)Glc
# In short: as §1
# [27] = molecular target: GalNAc(b1-3)GalNAc
# In short: as §1
# [28] = molecular target: GalNAc(b1-4)GlcNAc
# In short: as §1
# [29] = molecular target: GalNAc(b1-4)GlcNAc(b1-2)Man(a1-3)[GalNAc(b1-4)GlcNAc(b1-2)Man(a1-6)]Man(b1-4)GlcNAc(b1-4)GlcNAc
# In short: as §1
# [30] = molecular target: Glc(a1-4)Glc
# In short: as §1
# [31] = molecular target: Glc(a1-6)Glc(a1-6)Glc
# In short: as §1
# [32] = molecular target: Glc(b1-4)Glc
# In short: as §1
# [33] = molecular target: Glc(b1-6)Glc
# In short: as §1
# [34] = molecular target: GlcA(b1-3)Gal
# In short: as §1
# [35] = molecular target: GlcA(b1-3)GlcNAc
# In short: as §1
# [36] = molecular target: GlcA(b1-6)Gal
# In short: as §1
# [37] = molecular target: GlcNAc(a1-3)Gal(b1-4)GlcNAc
# In short: as §1
# [38] = molecular target: GlcNAc(a1-4)Gal(b1-3)GlcNAc
# In short: as §1
binder,measurement,setting,value
B1,glycan array binding signal (z-score),[1],-0.193
same,glycan array binding signal (z-score),[2],-0.111
same,glycan array binding signal (z-score),[3],0.931
same,glycan array binding signal (z-score),[4],-0.228
same,glycan array binding signal (z-score),[5],-0.203
same,glycan array binding signal (z-score),[6],-0.172
same,glycan array binding signal (z-score),[7],-0.113
same,glycan array binding signal (z-score),[8],-0.015
same,glycan array binding signal (z-score),[9],-0.154
same,glycan array binding signal (z-score),[10],-0.167
same,glycan array binding signal (z-score),[11],-0.17
same,glycan array binding signal (z-score),[12],-0.13
same,glycan array binding signal (z-score),[13],-0.09
same,glycan array binding signal (z-score),[14],-0.164
same,glycan array binding signal (z-score),[15],-0.123
same,glycan array binding signal (z-score),[16],-0.153
same,glycan array binding signal (z-score),[17],-0.16
same,glycan array binding signal (z-score),[18],-0.098
same,glycan array binding signal (z-score),[19],-0.193
same,glycan array binding signal (z-score),[20],-0.202
same,glycan array binding signal (z-score),[21],-0.148
same,glycan array binding signal (z-score),[22],-0.175
same,glycan array binding signal (z-score),[23],-0.222
same,glycan array binding signal (z-score),[24],-0.193
same,glycan array binding signal (z-score),[25],-0.184
same,glycan array binding signal (z-score),[26],-0.204
same,glycan array binding signal (z-score),[27],-0.1
same,glycan array binding signal (z-score),[28],-0.204
same,glycan array binding signal (z-score),[29],-0.185
same,glycan array binding signal (z-score),[30],-0.105
same,glycan array binding signal (z-score),[31],-0.189
same,glycan array binding signal (z-score),[32],-0.114
same,glycan array binding signal (z-score),[33],-0.162
same,glycan array binding signal (z-score),[34],-0.184
same,glycan array binding signal (z-score),[35],-0.091
same,glycan array binding signal (z-score),[36],-0.11
same,glycan array binding signal (z-score),[37],-0.136
same,glycan array binding signal (z-score),[38],-0.1
